Reference: the supplement of paper PMC10338343
± gives the standard deviation. Whole data set: some 6,600 sequences, median “pre-steady-state target cleavage rate” near 0.07, cut for the highest 2% near 0.72. The list shows a part of the results, in another mix than the full data.

test system: MIWI (PIWIL1) piRISC loaded with Kctd7 piRNA (30 nt); test: pre-steady-state target cleavage rate (min^-1); MIWI and MILI are mouse PIWI proteins and EfPiwi is from a freshwater sponge; tags in brackets are library labels; higher = faster piRNA-guided slicing of the target; settings: guide: Kctd7 piRNA 5'p-UGUUAAUCUCUCAGAGAAGGUGACAGUGAU; auxiliary factor: 500 nM mouse GTSF1
Protocol: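 Cleave-'n-Seq: a library of target RNAs (target site embedded in constant flanks, ACAGCATTCCGCGTTAGTGATATCCG... 5' flank; DNA-blocked outside the site) at 0.1 nM was incubated with 1 nM active mouse MILI or MIWI piRISC (synthetic 5'-monophosphorylated piRNA guide) with or without 500 nM mouse GTSF1 at 33 °C for 1 min to 16 h. Uncleaved targets were sequenced and normalised to non-target controls, and the pooled three trials were fitted to a burst-and-steady-state model to give the pre-steady-state cleavage rate (min^-1; k3 is constrained to at most 1e-4). Sequence is the target site only; target names encode pairing extent (gX:gY) and contiguous / 1-mismatch / 2-mismatch / bulge geometry. Fits with R² ≤ 0 are excluded.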

| Sequence | pre-steady-state target cleavage rate |
| --- | --- |
| UAGUCUCUCACCAUCUCUGAGAGAUUAACA | 0.0365 ± 0.0075 |
| UAGUCUCUCACCUUCUCAGAGAGAUUAACA | 0.0576 ± 0.0061 |
| UAGUGACUCACCUGUCUCUGAGAGAUUAACA | 0.106 ± 0.013 |
| UAGACAGUCACCUUCUCAGAGAGAUUAACA | 0.437 ± 0.026 |
| AUCACUGUCACCUUCUCUCACAGAUUAACA | 0.0162 ± 0.005 |
| UAGUGUGUCACCUUCUCACUGAGAUUAACA | 0.00629 ± 0.0042 |
| UAGACUGUACCUUCUCUGAGAGAUUAACA | 0.572 ± 0.044 |
| UUCACUGUCACCUUCUCUGAGAGAUUAACCA | 0.543 ± 0.031 |
| UUCACUGUCACCUUCUCACUGAGAUUUUGA | 0.00456 ± 0.0039 |
| AUCACUGUCACCUUUCUCUGAGAGAUUAACA | 0.599 ± 0.034 |
| UAGUGACACACCUUCUGAGAGAGAUUAACA | 0.00885 ± 0.0039 |
| AUCACUGUCACCUUCUCUGAGAGAUAUACA | 0.25 ± 0.032 |
| UACACUGUCACGUUCUCUGAGAGAUUAUCA | 0.188 ± 0.026 |
| UAGUGACAGUGGUUCUCUCAGAGAUUUACA | < 0.0001 |
| UAGACUCUCAGCUUCUCUGAGAGAUUAACA | 0.124 ± 0.013 |
| UUCACUGUCACCUUCUCUGAGUGAUUAUCA | 0.0392 ± 0.013 |
| UAGUCUGUCAUCUUCUCUGAGAGAUUAACA | 0.711 ± 0.036 |
| UAGUGACUCACCUUCUCUGUCUCUAAUUGA [g12:g23:cont:t1A] | < 0.0001 |
| UAGUCUGUCACCUUCUGUGAGAGAUUAUCA | 0.0153 ± 0.0063 |
| UAGUGAGUCACCUUCUCUGAGAGUUUAAGA | 0.342 ± 0.078 |
| UACACUGUCACCUUGUCUGAGAGAUUAAGA | 0.264 ± 0.054 |
| UAGUGACACACCUUCUCUGAGAGAUUAAUCA | 0.179 ± 0.024 |
| UAGUGUGUCACCUGCUCUGAGAGAUUAACA | 0.448 ± 0.027 |
| UAGUGUGUCACCUUCUCUGAGAGAUAUUCA | 0.194 ± 0.049 |

| Sequence | pre-steady-state target cleavage rate |
| --- | --- |
| UAGAGUGUCACCUUCACUGAGAGAUUAACA | 0.409 ± 0.018 |
| AUGUCUGUCACCUUCUCUGAGAGAUAUUGA | 0.0171 ± 0.0071 |
| UAGUGUGACACCUUCUCUGAGAGAAUAACA | 0.203 ± 0.034 |
| AUCACUGUCACGUUCUCAGAGAGAUUAACA | 0.191 ± 0.013 |
| UACACUGUCACCUACUCUGAGAGAUAUUGA | 0.00929 ± 0.004 |
| UAGUGACACACCUUCUCUGACAGUUUAACA | 0.01 ± 0.0033 |
| UAGUGACACACCUACUGUGAGAGAUUAACA | 0.0443 ± 0.0072 |
| UACACUGUCACCUUCAGAGAGAGAUUAACA | 0.097 ± 0.036 |
| UAGUGAGCACCUUCUCUGAGAGAUUAACA | 0.573 ± 0.043 |
| UAGUGUGUCACCUUCUCUCAGAGAUAAACA | 0.076 ± 0.013 |
| UAGUGACUCACCUUCUCUGACAGAUAAACA | 0.0783 ± 0.011 |
| UAGUGACAGUGCUUCUCUGAGAGAUGUAACA | 0.00296 ± 0.0028 |
| UAGUCUGUCACCUUCUCUGAAGAUUAACA | 0.0128 ± 0.004 |
| UAGACUGUCACCUUCUCUGAGAGAUAACA | 0.0584 ± 0.012 |
| UUCACUGUCACCUUGUGUGAGAGAUUAACA | 0.169 ± 0.012 |
| UAGACUGUCACCCUCUCUGAGAGAUUAACA | 0.637 ± 0.038 |
| UAGUGAGUGACCUUCUCUGUGAGAUUAACA | 0.213 ± 0.016 |
| UAGUCACUCACCUUCUCUGAGAGAUUAACA | 0.632 ± 0.028 |
| UAGUGAGUGACCUUCUCUGAGAGAUUUUGA | 0.00862 ± 0.0036 |
| UAGUCUGUCUCCUUCUCUGUGAGAUUAACA | 0.207 ± 0.012 |
| AUCACUGUCACCUUCUCAGAGAGAAUAACA | 0.0929 ± 0.025 |
| UAGACUGUGACCUUCUCUGAGAGAUUUACA | 0.303 ± 0.043 |
| UACACUGUGACCUUCUGUGAGAGAUUAACA | 0.3 ± 0.022 |
| UAGUGACAGACCUACUCUGAGAGAUAAACA | 0.0108 ± 0.0035 |

| Sequence | pre-steady-state target cleavage rate |
| --- | --- |
| UAGUGAGACACCUUCUCUGAGAGAUUUACA | 0.194 ± 0.025 |
| UUGACUGUCACCUUCUCUGACAGAUUAACA | 0.188 ± 0.021 |
| UAGUGACACACCUUCUCUGAGAGAGUAACA | 0.314 ± 0.058 |
| UAGUGACUCACCUUGUCUGAGAGAUAAACA | 0.227 ± 0.04 |
| UAGACUGUCACCUUCUCUGAGAGAUAUACA | 0.313 ± 0.044 |
| AUCACUGUCACCUUGUCUGAGAGAUUAACA | 0.527 ± 0.066 |
| UAGUGUGUCACCUUCUCUGAGACAUUAUCA | 0.0192 ± 0.0056 |
| UUCACUGUCACCUACUCUGAGACAUUAACA | 0.067 ± 0.0084 |
| AUCACUGUCACCUACUCUGAGAGAUAUUGA | 0.00742 ± 0.0034 |
| UUCACUGUCACGUUCUCUGAGAGAUAAACA | 0.271 ± 0.025 |
| UUCACUGUGACCUUCUCUGACAGAUUAACA | 0.349 ± 0.023 |
| UUCACUCACACCUUCUCUGAGAGAUUAAGA | 0.0618 ± 0.011 |
| UAGUGUGUCACCUUGAGUGAGAGAUUAACA | 0.00599 ± 0.0041 |
| UAGUGACUCACCUUCUCUGAGAGAUUGACA | 0.338 ± 0.049 |
| UAGUGAGUCACCUUGUCUGAGAGUUUAACA | 0.0617 ± 0.013 |
| UACACUGUCACCUUCUCUGACAGAUUAACA | 0.285 ± 0.028 |
| AUGACUGUCACCUUCUCUGAGUGAUUAACA | 0.0203 ± 0.0028 |
| UAGUGUGUCACCAUCUCUGAGUGAUUAACA | 0.0198 ± 0.0059 |
| UAGUCAGUCACCUUCUCUGUGAGAUUAACA | 0.304 ± 0.015 |
| UAGAUUGUCACCUUCUCUGAGAGAUUAACA | 0.619 ± 0.022 |
| UACACUGUCACCUUGUCUGAGACAUUAACA | 0.0935 ± 0.016 |
| UAGUGACUCACCUUCUCUGAGAGAAAUACA | 0.126 ± 0.028 |
| AACACUGUCACCUUCUCUGAGAGAUUUACA | 0.442 ± 0.058 |
| UAGUGACAGUGGAAGAGUGAGAGAUAAAGA | < 0.0001 |
